First the molecules themselves.
B1: CPEB3 Ribozyme (parent)
chain: UAACAGGGGGCCACAGCAGAAGCGUUCACGUCGCAGCCCCUGUCAGAUUCUGGUGAAUCUGCGAAUUCUGCUGUAUAUCUC

The source gives no read counts; variants with many changes may rest on few reads.

This series covers variants of B1. Briefly: self-cleavage, relative activity (ratio to wild type); higher = more cleavage; in vitro, sequencing. The procedure, abridged: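 Barcoded CPEB3 ribozyme mutants, produced by rounds of error-prone PCR, self-cleaved while being transcribed with T7 RNA polymerase for 5 hours at 37°C and during a subsequent 15 min DNase I step before EDTA was added. Sequencing of template-switched cDNA on Illumina gave cleaved and total reads, and DNA sequencing assigned barcodes to variants. Each variant's relative activity is its cleaved/total read fraction divided by the unmutated ribozyme's fraction, averaged across three batches. A variant needed a minimum of 5 reads.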
G9A G19C A28G C34A: the self-cleavage stood at 0.04.

In the case of G10A A15G U26A G42A A64G, the self-cleavage amounted to 0.05.

As to G9U A15G A20G U54C, the self-cleavage is 0.35.

G9A U25C A45U G53A A56G: the self-cleavage worked out at 0.08.

For the variant G9A U49C U78C, the self-cleavage was 0.27.

For G9C U54C U74A, the self-cleavage turned out to be 0.32.

Consider G9U A13C U31A A45G A56G U80G, for which the self-cleavage stood at 0.04.

In the case of G9A U49C U54G U67C U69C, the self-cleavage is 0.08.

As to G9A U25A A28G U58C U67C, the self-cleavage came to 0.11.

For the variant G9A C14U U67C, the self-cleavage worked out at 0.12.

With G9A U41A U48C U60C, the self-cleavage was determined as 0.04.

Regarding G9U U43C A57G, the self-cleavage is 0.16.

Turning to G10A A15G U26G C29U A35U G36A U51A, the self-cleavage was determined as 0.03.

For the variant G9C A21U U31C U48C A57U U67C, the self-cleavage worked out at 0.07.

Turning to G9U U41A U76C A77G, the self-cleavage worked out at 0.05.

G9C U31C A56G U72C U80C: the self-cleavage was 0.33.

In the case of G9C A45U A64G, the self-cleavage turned out to be 0.22.

For G9A C17A U25C U41A, the self-cleavage amounted to 0.05.

As to G9C C11U U60C A65G A77U, the self-cleavage worked out at 0.15.

For the variant G9A G36C U54C, the self-cleavage was 0.41.

As for G10A A15G U43C A56G G63U U78C, the self-cleavage turned out to be 0.05.

G9A U31C A64C: the self-cleavage came to 0.05.

Consider G9A C29U A35C U41C G70U, for which the self-cleavage was 0.05.

For G9A U26G U49C A65G U66C, the self-cleavage was found to be 0.11.

Turning to G9U A13U U49C, the self-cleavage worked out at 0.13.

With G9U A20G A28G U31C A35G U72G, the self-cleavage was 0.03.

G9A U26C U51A G52A: the self-cleavage was determined as 0.07.

Consider G9C U26C C38U A65U, for which the self-cleavage worked out at 0.11.

On to G9C U31A U41C, for which the self-cleavage stood at 0.08.

G9U G53A U72A: the self-cleavage worked out at 0.13.

Take G9U A15G U25C U26C U67C U76A: the self-cleavage turned out to be 0.07.

Take G9U U26A U48C U72C U78C: the self-cleavage amounted to 0.05.

G9A U49C U54C U69C: the self-cleavage stood at 0.07.

As to G9U U41C U80C, the self-cleavage worked out at 0.16.

G9A U58A A64U C68U: the self-cleavage came out at 0.05.

Consider G9U A28G A56G, for which the self-cleavage worked out at 0.19.

G9A U31C C38A A45G A56G: the self-cleavage came out at 0.16.

G9A U41C A56G U76C U80C: the self-cleavage came to 0.2.

With G9A U25C A35G C40U U54A, the self-cleavage was 0.15.

With G10A A13U A35G U80A, the self-cleavage was found to be 0.82.

As to G9A U25C U26A U49C, the self-cleavage was determined as 0.04.

As for G9C C12U A28G A56U U74C, the self-cleavage was 0.04.

For G9A U41C U80C, the self-cleavage came out at 0.15.

On to G9U A18G U41C A57G U67C U80A, for which the self-cleavage stood at 0.04.

G9A G22A U26C U48C: the self-cleavage was 0.04.

As to G9A U26C A35U, the self-cleavage came to 0.19.

As for G9C G24A A35U U69C U72C, the self-cleavage was found to be 0.05.

As to G9A U41C U69C, the self-cleavage was 0.09.

As to G9A U25C A35C A65U, the self-cleavage stood at 0.1.

With G9C U54A A64G U72A, the self-cleavage is 0.14.

For G9A U49C U76A, the self-cleavage came out at 0.05.

Turning to G10A A18U U31A A56G A65G, the self-cleavage turned out to be 0.04.

As to G9U A20G C34U C37U C62U, the self-cleavage stood at 0.03.

For G9C A28U U31A G33A U54C, the self-cleavage was determined as 0.08.

Regarding G10A A20G C32U A56G A57G U76A, the self-cleavage came to 0.03.

With G9C U31C C79U, the self-cleavage turned out to be 0.31.

As for G9U U72A U78C, the self-cleavage is 0.08.

Consider G9C U67G U80C, for which the self-cleavage turned out to be 0.06.

As for G9A U26C U51G, the self-cleavage came to 0.07.

G9A C12U U31A U41C U54C U58A: the self-cleavage came to 0.07.

For the variant G10A A20G A21G A65G U69A, the self-cleavage amounted to 0.24.

With G9A U58A U80C, the self-cleavage was determined as 0.23.

Take G9C U54C A77G U78A: the self-cleavage was 0.05.

Regarding G9A C17U C29G U78C, the self-cleavage came out at 0.13.

Take G9A C39U U78C: the self-cleavage worked out at 0.07.

With G9U A18G U41A A45G U54C, the self-cleavage turned out to be 0.07.

With G9C U26C A35G A57G U60C, the self-cleavage came to 0.09.

As to G9U U49A U66C, the self-cleavage stood at 0.05.

On to G10A A13G G16A U25C U26A, for which the self-cleavage turned out to be 0.05.

On to G9U U54C C62U U72A, for which the self-cleavage came to 0.04.

Take G9U U49C U76A: the self-cleavage was determined as 0.14.

Consider G9A C14U A47G U49C U60A, for which the self-cleavage is 0.04.

In the case of G9A C62U U72A U74A A75C, the self-cleavage amounted to 0.05.

In the case of G9C U72A U78C, the self-cleavage came out at 0.12.

Turning to G10A A20G A57G, the self-cleavage stood at 0.35.

Consider G9A U31C U41A U54C, for which the self-cleavage worked out at 0.13.

As for G9U A20C A21C A57G U58C U72A U78C, the self-cleavage worked out at 0.05.

G9A C14U U51A C59G A64C A77U: the self-cleavage stood at 0.04.

Regarding G9A U25C G52A, the self-cleavage turned out to be 0.06.

Turning to G9U U54C U60A U67C, the self-cleavage was 0.06.

Regarding G9A U43C U58C, the self-cleavage was found to be 0.07.

As to G10A A15G C17U, the self-cleavage turned out to be 0.46.

Take G9U A20G A35U U58A G63A U78A: the self-cleavage was 0.06.

Values taken from the RNAGym collection of RNA variant scans (doi:10.1093/nar/gkz1192).
